{"source": "the supplement of paper PMC10369915", "binders": {"B1": {"name": "ABCD1_Y180_R182P (peptide)", "chain": "FSQQTYYPVSN"}, "B2": {"name": "EGFR_opt_no-pY_2015 (peptide)", "chain": "GDEEDYYEIPG"}, "B3": {"name": "A2M_Y817 (peptide)", "chain": "ATVLNYLPKCI"}, "B4": {"name": "ZNF830_Y159 (peptide)", "chain": "SLLPDYEDEEE"}, "B5": {"name": "ABCC12_Y7 (peptide)", "chain": "VGEGPYLISDL"}, "B6": {"name": "PYKtide_no-pT_2014 (peptide)", "chain": "AHPIIYTIIEA"}, "B7": {"name": "ABCD1_Y181_YF (peptide)", "chain": "SQQTFYRVSNM"}, "B8": {"name": "ABCD1_Y281_R280C (peptide)", "chain": "KGELCYMHSRV"}, "B9": {"name": "AACS_Y117 (peptide)", "chain": "DRVALYIAREG"}, "B10": {"name": "ABCC1_Y1508_S1512L (peptide)", "chain": "GEIQEYGAPLD"}, "B11": {"name": "NRTKtide_2018 (peptide)", "chain": "GDEAIYATVAG"}, "B12": {"name": "ABCD1_Y180_YF (peptide)", "chain": "FSQQTYFRVSN"}, "B13": {"name": "ABCC8_Y1353 (peptide)", "chain": "NLSVRYDSSLK"}, "B14": {"name": "ZPLD1_Y198 (peptide)", "chain": "YNDSTYNQQLI"}, "B15": {"name": "ABCC6_Y372_N370D (peptide)", "chain": "EQQDMYRLKVL"}, "B16": {"name": "ZPLD1_Y198_T197A_YF (peptide)", "chain": "FNDSAYNQQLI"}, "B17": {"name": "AASS_Y188 (peptide)", "chain": "GMAHNYRNSSQ"}, "B18": {"name": "FGR_opt_2018 (peptide)", "chain": "GEDDVYDSVPG"}}, "note": "The list shows a part of the results. Cut-off read from the data, not from the text of the source: active = 3.2 or more and inactive = the rest. The signal is at background level for most entries.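 Note: displayed peptides selected on beads carrying the immobilized SH2 domain, with library peptides lacking any tyrosine serving as negative controls.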", "data": [{"target": "SHP2 C-SH2 domain E139D", "assay": "enrichment score (SH2-bound / input frequency) (ratio); higher = stronger binding; tyrosines were phosphorylated by kinases first", "settings": "peptide library: pTyr-Var", "values": [{"binder": "B1", "enrichment score": "inactive: 1.39"}, {"binder": "B2", "enrichment score": "inactive: 0.715"}, {"binder": "B3", "enrichment score": "inactive: 1.19"}, {"binder": "B4", "enrichment score": "inactive: 0.414"}, {"binder": "B5", "enrichment score": "inactive: 1.07"}, {"binder": "B6", "enrichment score": "inactive: 1.84"}, {"binder": "B7", "enrichment score": "inactive: 0.865"}, {"binder": "B8", "enrichment score": "inactive: 1.14"}, {"binder": "B9", "enrichment score": "inactive: 0.872"}, {"binder": "B10", "enrichment score": "inactive: 0.7"}, {"binder": "B11", "enrichment score": "inactive: 0.606"}, {"binder": "B12", "enrichment score": "inactive: 1.21"}, {"binder": "B13", "enrichment score": "inactive: 1.09"}, {"binder": "B14", "enrichment score": "inactive: 0.614"}, {"binder": "B15", "enrichment score": "inactive: 0.508"}, {"binder": "B16", "enrichment score": "inactive: 0.674"}, {"binder": "B17", "enrichment score": "inactive: 0.598"}, {"binder": "B18", "enrichment score": "inactive: 0.451"}]}, {"target": "SHP2 C-SH2 domain wild-type", "assay": "enrichment score (SH2-bound / input frequency) (ratio); higher = stronger binding; tyrosines were phosphorylated by kinases first", "settings": "peptide library: pTyr-Var", "values": [{"binder": "B1", "enrichment score": "inactive: 0.997"}, {"binder": "B2", "enrichment score": "inactive: 1.01"}, {"binder": "B3", "enrichment score": "inactive: 1.37"}, {"binder": "B4", "enrichment score": "inactive: 0.557"}, {"binder": "B5", "enrichment score": "inactive: 0.928"}, {"binder": "B6", "enrichment score": "inactive: 2.22"}, {"binder": "B7", "enrichment score": "inactive: 0.617"}, {"binder": "B8", "enrichment score": "inactive: 0.829"}, {"binder": "B9", "enrichment score": "inactive: 0.807"}, {"binder": "B10", "enrichment score": "inactive: 0.656"}, {"binder": "B11", "enrichment score": "inactive: 0.641"}, {"binder": "B12", "enrichment score": "inactive: 1.28"}, {"binder": "B13", "enrichment score": "inactive: 0.95"}, {"binder": "B14", "enrichment score": "inactive: 0.409"}, {"binder": "B15", "enrichment score": "inactive: 0.586"}, {"binder": "B16", "enrichment score": "inactive: 0.697"}, {"binder": "B17", "enrichment score": "inactive: 0.466"}, {"binder": "B18", "enrichment score": "inactive: 0.398"}]}, {"target": "SHP2 N-SH2 domain L43F", "assay": "enrichment score (SH2-bound / input frequency) (ratio); higher = stronger binding; tyrosines were phosphorylated by kinases first", "settings": "peptide library: pTyr-Var", "values": [{"binder": "B1", "enrichment score": "inactive: 1.12"}, {"binder": "B2", "enrichment score": "inactive: 1.15"}, {"binder": "B3", "enrichment score": "inactive: 0.893"}, {"binder": "B4", "enrichment score": "inactive: 0.484"}, {"binder": "B5", "enrichment score": "inactive: 0.865"}, {"binder": "B6", "enrichment score": "active: 4.46"}, {"binder": "B7", "enrichment score": "inactive: 1.17"}, {"binder": "B8", "enrichment score": "inactive: 0.948"}, {"binder": "B9", "enrichment score": "inactive: 0.82"}, {"binder": "B10", "enrichment score": "inactive: 0.692"}, {"binder": "B11", "enrichment score": "inactive: 0.576"}, {"binder": "B12", "enrichment score": "inactive: 1.36"}, {"binder": "B13", "enrichment score": "inactive: 0.962"}, {"binder": "B14", "enrichment score": "inactive: 0.488"}, {"binder": "B15", "enrichment score": "inactive: 0.668"}, {"binder": "B16", "enrichment score": "inactive: 0.773"}, {"binder": "B17", "enrichment score": "inactive: 0.498"}, {"binder": "B18", "enrichment score": "inactive: 0.417"}]}, {"target": "SHP2 N-SH2 domain T42A", "assay": "enrichment score (SH2-bound / input frequency) (ratio); higher = stronger binding; tyrosines were phosphorylated by kinases first", "settings": "peptide library: pTyr-Var", "values": [{"binder": "B1", "enrichment score": "inactive: 0.779"}, {"binder": "B2", "enrichment score": "inactive: 0.811"}, {"binder": "B3", "enrichment score": "inactive: 1.19"}, {"binder": "B4", "enrichment score": "inactive: 0.373"}, {"binder": "B5", "enrichment score": "inactive: 0.702"}, {"binder": "B6", "enrichment score": "active: 7.92"}, {"binder": "B7", "enrichment score": "inactive: 0.653"}, {"binder": "B8", "enrichment score": "inactive: 0.794"}, {"binder": "B9", "enrichment score": "inactive: 0.68"}, {"binder": "B10", "enrichment score": "inactive: 0.57"}, {"binder": "B11", "enrichment score": "inactive: 0.604"}, {"binder": "B12", "enrichment score": "inactive: 1.39"}, {"binder": "B13", "enrichment score": "inactive: 0.987"}, {"binder": "B14", "enrichment score": "inactive: 0.385"}, {"binder": "B15", "enrichment score": "inactive: 0.568"}, {"binder": "B16", "enrichment score": "inactive: 0.791"}, {"binder": "B17", "enrichment score": "inactive: 0.529"}, {"binder": "B18", "enrichment score": "inactive: 0.452"}]}, {"target": "SHP2 N-SH2 domain T52S", "assay": "enrichment score (SH2-bound / input frequency) (ratio); higher = stronger binding; tyrosines were phosphorylated by kinases first", "settings": "peptide library: pTyr-Var", "values": [{"binder": "B1", "enrichment score": "inactive: 1.1"}, {"binder": "B2", "enrichment score": "inactive: 0.563"}, {"binder": "B3", "enrichment score": "inactive: 0.789"}, {"binder": "B4", "enrichment score": "inactive: 0.481"}, {"binder": "B5", "enrichment score": "inactive: 0.89"}, {"binder": "B6", "enrichment score": "active: 4.91"}, {"binder": "B7", "enrichment score": "inactive: 0.678"}, {"binder": "B8", "enrichment score": "inactive: 1.03"}, {"binder": "B9", "enrichment score": "inactive: 0.816"}, {"binder": "B10", "enrichment score": "inactive: 0.497"}, {"binder": "B11", "enrichment score": "inactive: 0.684"}, {"binder": "B12", "enrichment score": "inactive: 1.1"}, {"binder": "B13", "enrichment score": "inactive: 0.829"}, {"binder": "B14", "enrichment score": "inactive: 0.522"}, {"binder": "B15", "enrichment score": "inactive: 0.647"}, {"binder": "B16", "enrichment score": "inactive: 0.67"}, {"binder": "B17", "enrichment score": "inactive: 0.394"}, {"binder": "B18", "enrichment score": "inactive: 0.459"}]}, {"target": "SHP2 N-SH2 domain wild-type", "assay": "enrichment score (SH2-bound / input frequency) (ratio); bacterial display of known human phosphotyrosine sites (pTyr-Var adds point mutants) read by sequencing; higher = stronger binding; tyrosines were phosphorylated by kinases first", "settings": "peptide library: pTyr-Var", "values": [{"binder": "B1", "enrichment score": "inactive: 1.07"}, {"binder": "B2", "enrichment score": "inactive: 1.01"}, {"binder": "B3", "enrichment score": "inactive: 1.28"}, {"binder": "B4", "enrichment score": "inactive: 0.644"}, {"binder": "B5", "enrichment score": "inactive: 0.948"}, {"binder": "B6", "enrichment score": "inactive: 2.33"}, {"binder": "B7", "enrichment score": "inactive: 0.733"}, {"binder": "B8", "enrichment score": "inactive: 0.838"}, {"binder": "B9", "enrichment score": "inactive: 1.02"}, {"binder": "B10", "enrichment score": "inactive: 0.669"}, {"binder": "B11", "enrichment score": "inactive: 0.852"}, {"binder": "B12", "enrichment score": "inactive: 1.22"}, {"binder": "B13", "enrichment score": "inactive: 1.09"}, {"binder": "B14", "enrichment score": "inactive: 0.573"}, {"binder": "B15", "enrichment score": "inactive: 0.538"}, {"binder": "B16", "enrichment score": "inactive: 0.916"}, {"binder": "B17", "enrichment score": "inactive: 0.517"}, {"binder": "B18", "enrichment score": "inactive: 0.452"}]}]}
